Read counts are not given, so values of variants with three or more changes are uncertain.
B1: LINE1-mini (parent)
chain: GGCAGAGCUCAACACAGCGUGGCAAAGUGGCUGUGGCUAGACUGCC

Variants of: B1
Test: self-cleavage, relative activity (ratio to wild type); higher = more cleavage; in vitro, sequencing; the parent is a self-cleaving ribozyme
For C18G A24C G27A C42A, the self-cleavage was 0.06.
In the case of C18A U38G A39U, the self-cleavage is reported as 0.07.
Work on G17U U20C A39U yielded a self-cleavage of 0.21.
For C18A C23G G44A, the self-cleavage was 0.13.
With C18G A24U G40C the self-cleavage was 0.02.
With C18A U34A G44U the self-cleavage was 0.01.
C18G G21C A26U G27U C31A showed a self-cleavage of 0.12.
With C18A C23G A39G the self-cleavage was 0.05.
C18A G29C C42G showed a self-cleavage of 0.05.
C18A C23G A25G gave a self-cleavage of 0.11.
In the case of C18A G27C C42G, the self-cleavage is reported as 0.02.
C18G G35C A41U gave a self-cleavage of 0.03.
C18G A25G G44A C46A showed a self-cleavage of 0.02.
In the case of C18U A26G G30U, the self-cleavage is reported as 0.61.
For C18A G22A C23U U34A, the self-cleavage was 0.01.
C18A G19U C31U gave a self-cleavage of 0.01.
Work on C18A A26U G30C yielded a self-cleavage of 2.02.
In the case of C18A C37U G40A C46U, the self-cleavage is reported as 0.02.
C18A C31A G33U G35U C46A showed a self-cleavage of 0.09.
For C18G U32C C45A, the self-cleavage was 0.12.
For C18A G40U C46G, the self-cleavage was 0.08.
G17U U34C C45U showed a self-cleavage of 0.01.
C18A U20C U34A C46A gave a self-cleavage of 0.04.
C18G G19A G21A showed a self-cleavage of 0.57.
Work on C18G G27U G29U C45A yielded a self-cleavage of 0.32.
Variant C18G U20A A25G A39C has a self-cleavage of 0.17.
For C18G G29U G33A, the self-cleavage was 0.03.
In the case of C18G C23U A25U G27A U38A, the self-cleavage is reported as 0.39.
With C18G A24C U28A U32C the self-cleavage was 0.04.
In the case of C18A U28A U38G, the self-cleavage is reported as 0.03.
Work on C18A G19A U32A G35C yielded a self-cleavage of 0.01.
Work on C18A A26G U32G A39U yielded a self-cleavage of 0.
Work on C18A C23U C31A C42A yielded a self-cleavage of 0.01.
Work on G17U U28G G35C yielded a self-cleavage of 0.06.
Work on C18A G29U U43G yielded a self-cleavage of 0.03.
C18A G33C U43A gave a self-cleavage of 0.13.
Work on C18U A24G G30U U38C yielded a self-cleavage of 0.24.
In the case of C18G G30A U32A C46A, the self-cleavage is reported as 0.05.
For C18G C23U C42U, the self-cleavage was 0.05.
Work on C18G G19A G22U A25U C31U yielded a self-cleavage of 0.09.
In the case of C18G G21C A41C, the self-cleavage is reported as 0.01.
C18A G36U C42G U43A G44C showed a self-cleavage of 0.01.
For C18U A25G C31U U34G, the self-cleavage was 0.02.
For C18A G19A U20C G30A C31A, the self-cleavage was 0.2.
For G17U U20C G44A C46U, the self-cleavage was 0.02.
In the case of C18G G22C G35U C42G, the self-cleavage is reported as 0.03.
C18G G22U G27C U32A showed a self-cleavage of 0.01.
C18G G27U G33A C37G gave a self-cleavage of 0.02.
With C18U A25C U38G G44A the self-cleavage was 0.01.
C18A G19A C42U showed a self-cleavage of 0.52.
For C18G G29U G30U, the self-cleavage was 0.34.
In the case of C18G G22U G33A C37A U38G, the self-cleavage is reported as 0.
With C18A U20G G40C the self-cleavage was 0.01.
With C18A A24U G36A A39U the self-cleavage was 0.01.
Variant C18A A39G C45U has a self-cleavage of 0.04.
In the case of C18G U38A G44A, the self-cleavage is reported as 0.07.
Work on C18G C23G U28C G33A yielded a self-cleavage of 0.05.
For C18G G22A A26U, the self-cleavage was 0.45.
With G17U U28G A41C C42A the self-cleavage was 0.08.
For C18A U43C C46U, the self-cleavage was 0.04.
C18U C23U U28A G29C gave a self-cleavage of 0.23.
Work on C18A G19C G29A G30U yielded a self-cleavage of 0.56.
G17U U20A G35U G36A showed a self-cleavage of 0.07.
Work on C18G A26C C37G yielded a self-cleavage of 0.03.
Variant C18G G19U G21A C31G G36A C45U has a self-cleavage of 0.01.
Work on C18G U34G G35U yielded a self-cleavage of 0.03.
C18G G36U G40A showed a self-cleavage of 0.07.
In the case of C18A A25G U34C G35U, the self-cleavage is reported as 0.01.
Variant C18A U28C G44U has a self-cleavage of 0.11.
Work on C18A C31G A39U A41G yielded a self-cleavage of 0.01.
Variant C18A G19U A26C G29U has a self-cleavage of 0.31.
Work on C18A A26U U38G G40A yielded a self-cleavage of 0.01.
Work on C18G G22A U32C G44U yielded a self-cleavage of 0.04.
C18A A26G U28A G36U gave a self-cleavage of 0.04.
Work on C18G G22C C37U yielded a self-cleavage of 0.07.
C18G G19C U20A C31A gave a self-cleavage of 0.17.
Variant C18G U28A C31G has a self-cleavage of 0.03.
In the case of C18G U34G U43C, the self-cleavage is reported as 0.02.
C18A G44U C45G gave a self-cleavage of 0.07.
Work on C18A C23U U32C G33A C45U yielded a self-cleavage of 0.03.
Variant C18G A24C G40C has a self-cleavage of 0.01.
For C18A U28G U32A, the self-cleavage was 0.03.
In the case of C18G A24G G33U A39U, the self-cleavage is reported as 0.05.
C18G A26U A41U showed a self-cleavage of 0.13.
In the case of C18G A25C U38C, the self-cleavage is reported as 0.09.
C18A A25U G40A gave a self-cleavage of 0.03.
Variant C18A A24U U34A G35A G36A has a self-cleavage of 0.17.
Work on C18G C23A G29U U32G yielded a self-cleavage of 0.05.
C18A G30C G36A gave a self-cleavage of 0.02.
For C18G U28C G30A, the self-cleavage was 1.06.
Work on C18A C23U A41U yielded a self-cleavage of 0.2.
Work on C18A U20A C23U C31G A41U yielded a self-cleavage of 0.01.
Variant C18U A25G U28C has a self-cleavage of 0.1.
Variant C18U A25G U28G has a self-cleavage of 0.38.
With C18G G27U C31A the self-cleavage was 1.07.
Work on C18G U20C G29A yielded a self-cleavage of 0.46.
In the case of G17U U28A G35U, the self-cleavage is reported as 0.04.
In the case of C18G G29C G33U A39U, the self-cleavage is reported as 0.02.
Variant C18G C23G U43A has a self-cleavage of 0.07.
With C18A G33U G35C the self-cleavage was 0.02.
In the case of G17U U20G G21A, the self-cleavage is reported as 0.05.
Work on C18U A26C C42U yielded a self-cleavage of 0.55.
C18G A39U G44C showed a self-cleavage of 0.04.
Work on C18G A39U G44U yielded a self-cleavage of 0.13.
Work on C18G G21A A26G U28A C31U yielded a self-cleavage of 0.02.
In the case of C18A G19C U20A, the self-cleavage is reported as 0.33.
In the case of C18A G27U U43C, the self-cleavage is reported as 0.02.
C18A G33A A39G showed a self-cleavage of 0.05.
In the case of C18A A25G A26U A41G, the self-cleavage is reported as 0.02.
Work on C18A G30A A39C yielded a self-cleavage of 0.18.
With C18G G27A G36C A41C the self-cleavage was 0.03.
In the case of C18A G19C G36A, the self-cleavage is reported as 0.37.
C18U A24C A41G C45U gave a self-cleavage of 0.02.
Variant C18U C23G C31A G36A has a self-cleavage of 0.04.
With C18A G19A U32C the self-cleavage was 0.05.
For C18A A25C U32G, the self-cleavage was 0.05.
C18G C42A C46G gave a self-cleavage of 0.04.
With C18G U32G G33U the self-cleavage was 0.03.
C18A C31G C46U gave a self-cleavage of 0.1.
With C18G G19C A26U G33C C42G the self-cleavage was 0.05.
Work on C18G C37A G40C yielded a self-cleavage of 0.2.
C18U A25U U28A G35C C37A gave a self-cleavage of 0.03.
For C18A G35C C45U, the self-cleavage was 0.02.
In the case of C18U A25U G27A G33A, the self-cleavage is reported as 0.18.
C18A G22A G27U gave a self-cleavage of 0.82.
Work on G17U U20G U34G yielded a self-cleavage of 0.1.
C18A G19C C23G gave a self-cleavage of 0.77.
For C18A U20G U28C U34A, the self-cleavage was 0.01.
C18A G19C C31U G40A C45G gave a self-cleavage of 0.02.
C18A G21A U34A G35U showed a self-cleavage of 0.01.
For G17U U20G A26G U34C A41C C46A, the self-cleavage was 0.01.
C18A U20C A24U showed a self-cleavage of 0.29.
For C18U A24U A25U, the self-cleavage was 0.14.
C18A G30U G35C C37A C45G showed a self-cleavage of 0.03.
For C18G G22C U32C G44A, the self-cleavage was 0.07.
Work on C18A U32G G40U yielded a self-cleavage of 0.
With C18G G29A C37G the self-cleavage was 0.05.
C18G G19A G36U showed a self-cleavage of 0.11.
Variant C18A A25C G27U has a self-cleavage of 0.14.
C18A G27U G29U C46A showed a self-cleavage of 0.5.
In the case of C18A A24C G29U C42G, the self-cleavage is reported as 0.02.
Work on C18U C23U C37U yielded a self-cleavage of 0.02.
C18G G33A C46A showed a self-cleavage of 0.03.
C18A G22A G29A U32A gave a self-cleavage of 0.05.
Variant C18A G22A A24U U34C G40C has a self-cleavage of 0.01.
Work on C18A A25G G35A A41G yielded a self-cleavage of 0.
Variant C18G A25G G40U has a self-cleavage of 0.01.
C18A G21U C23G G27U showed a self-cleavage of 0.38.
With C18A A26G U28C G35U G40A the self-cleavage was 0.02.
G17U U20A G27U C46A gave a self-cleavage of 0.22.
C18A C23U C45A showed a self-cleavage of 0.05.
C18G A25C U34A showed a self-cleavage of 0.
C18G G22C A25C U28C C45U showed a self-cleavage of 0.22.
C18A G19C A24G G33A G35C C42G gave a self-cleavage of 0.03.
In the case of C18G G22A C23A U34C U43G C46G, the self-cleavage is reported as 0.03.
Variant C18G C31A G36C has a self-cleavage of 0.07.
C18A C42U G44U showed a self-cleavage of 0.02.
C18G G36U C45A showed a self-cleavage of 0.04.
For C18G G27A G40U, the self-cleavage was 0.39.
For C18G G19A G40C, the self-cleavage was 0.05.
Work on C18G G29A G33U G35A C45A C46U yielded a self-cleavage of 0.02.
In the case of C18A G21U G22C G29A G30C, the self-cleavage is reported as 0.15.
C18G U28G G35C C37U showed a self-cleavage of 0.02.
With C18A C37A C42G the self-cleavage was 0.01.
C18G G33A G40C C42A showed a self-cleavage of 0.01.
C18G G33U G40A showed a self-cleavage of 0.02.
In the case of C18A C23U A39U, the self-cleavage is reported as 0.34.

Source: the RNAGym collection of RNA variant scans (doi:10.7554/elife.90254)
